Results published in publication doi:10.1101/2025.07.04.663231, “Product-stabilized filamentation by human glutamine synthetase allosterically tunes metabolic activity” (bioRxiv, 2025).

B1: human glutamine synthetase R298A (enzyme)
chain: not shown
notes: human glutamine synthetase with R298A; Preparation of the mutant is not described; probably made scarless in E. coli like the wild type; also called loop variant R298A; copies: 10
B2: N-terminally His6-tagged human glutamine synthetase (enzyme)
chain: not shown
notes: human glutamine synthetase; expression vector ordered from ATUM; said to be the identical construct as in the X-ray structure of Krajewski et al. 2008; also called His6-tagged GS; 6xHIS-conjugated human glutamine synthetase; source: E. coli BL21(DE3), purified (HisTrap, Superose 6 SEC); not shown: His6, N-terminal, kept

How the values were obtained:
[1] = biological target: the molecule itself; experiment: cryo-EM structure; turnover conditions (5 mM ATP, 25 mM ammonium chloride, 50 mM glutamate); decamer reconstruction (C1 for wild type, C5 for R298A)
[2] = biological target: the molecule itself; experiment: negative-stain electron microscopy; ~0.01 - 0.05 mg/mL in base buffer, 0.7% uranyl formate, 2D classification and averaging; oligomer seen in the 2D averages

Row | Protein | stoichiometry N [1] | stoichiometry N [2]
1 | B1 | 10 | 
2 | B2 |  | 10
